{"source": "PubChem BioAssay AID686979", "about": "(National Center for Advancing Translational Sciences (NCATS), 2013)", "note": "Several values for one entry are separate records, joined by “and”; a condition that tells them apart may be missing. Equal values may be shown once. About 50,000 (12%) of roughly 420,000 compounds were called active. This list was built around the results that the source calls inconclusive (neither active nor inactive); the mix of calls is not that of the screen. Calls come from the whole dose curve; as a rule, active = well fitted inhibition curve with a large enough effect; inconclusive = small, poorly fitted or top-dose-only effect; inactive = flat fitted curve, though single readings scatter. A potency beside an inconclusive call is a rough fit, not a confirmed value. % is set by controls: 0 for no effect and ±100 for the full control effect; potency is the fitted concentration of half-maximal effect; tags give direction and shape of the fitted curve.", "data": [{"experiment": "qHTS for Inhibitors of human tyrosyl-DNA phosphodiesterase 1 (TDP1): qHTS in cells in presence of CPT; note: nearly all actives have a fitted effect of over 55% in size", "settings": "chicken DT40 Tdp1-/-;hTDP1 cells + 20 nM CPT, ATP luminescence, 48 h; activity change, negative = growth inhibition: at 46.2 µM (top of the series) unless noted", "summary_of_the_method": "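Chicken DT40 Tdp1-/- cells complemented with human TDP1, 400 cells/well, exposed to compounds plus 20 nM camptothecin for at least 48 h at 37 C; viability read as ATP content by CellTiter-Glo luminescence.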", "values": [{"smiles": "C(=NNc1ccc2ccccc2n1)c1ccccn1", "Potency": "active: 1.64 µM"}, {"smiles": "Cc1ccc(NC(=O)CCCn2c(=O)c3cccn3c3ccccc32)c(C)c1", "Potency": "active: 14.6 µM"}, {"smiles": "O=C(COC(=O)c1ccc(S(=O)(=O)N2CCCC2)cc1)Nc1ccc(N2CCOCC2)cc1", "Potency": "active: 18.4 µM"}, {"smiles": "C=CCOC(=O)Nc1c(C(=O)OC)[nH]c2ccccc12", "Potency": "inactive"}, {"smiles": "COc1ccc(NC(=O)c2cc(S(=O)(=O)N3CCCCC3)ccc2OC)cc1", "Potency": "inconclusive: 29.1 µM [inhibitor, single point]"}, {"smiles": "CCc1noc(-c2ccc(NCc3ccccc3)c([N+](=O)[O-])c2)n1", "Potency": "active: 23.1 µM"}, {"smiles": "COc1cc(Cl)ccc1OCc1cc(C(=O)N(C)C2CC(C)(C)NC(C)(C)C2)no1", "Potency": "inactive"}, {"smiles": "O=C(O)c1cccc(NC2=Nc3cccc4cccc2c34)c1", "Potency": "inactive"}, {"smiles": "CC1Cc2ccccc2N1C(=O)CSc1nnc(C2CC2)n1C", "note": "(configuration not stated)", "Potency": "inconclusive: 29.1 µM [inhibitor, single point]"}, {"smiles": "O=C(Cc1ccc(Cl)c(Cl)c1)Nc1ccccc1N1CCOCC1", "Potency": "active: 23.1 µM"}, {"smiles": "Cc1ccc(-c2csc(NC(=O)c3cccc(S(=O)(=O)N4CCN(C)CC4)c3)n2)cc1", "Potency": "inconclusive: 29.1 µM [inhibitor, single point]"}, {"smiles": "CCN(C(=O)COC(=O)/C=C/c1ccco1)C1CCCCC1", "Potency": "inactive"}, {"smiles": "CC(C)CN(C(=O)COC(=O)c1ccc(Cl)nc1)c1c(N)n(Cc2ccccc2)c(=O)[nH]c1=O", "Potency": "inactive"}, {"smiles": "NC(=S)N/N=C/c1ccccc1O", "Potency": "inconclusive: 8.2 µM [inhibitor, partial curve]"}, {"smiles": "O=C1C=C(c2cc(F)ccc2F)C[C@@H](c2ccc(F)cc2)C1", "Potency": "inactive"}, {"smiles": "CCOC(=O)Cc1nnc(Nc2cc(C)ccc2C)c2ccccc12", "Potency": "inconclusive: 5.17 µM [inhibitor, partial curve]"}, {"smiles": "NNC(=O)c1cc2c(N3CCC(Cc4ccccc4)CC3)ncnc2s1", "Potency": "active: 16.4 µM"}, {"smiles": "NC(=O)c1ccsc1NC(=O)COC(=O)/C=C/c1ccc([N+](=O)[O-])cc1", "activity change, negative = growth inhibition": "inconclusive: -31.9% [inhibitor]"}, {"smiles": "Cn1nccc1C(=O)NC(=S)Nc1cc(Cl)cc(Cl)c1", "Potency": "inactive"}, {"smiles": "COc1ccc2c(c1)c(=O)cc(C)n2CC(=O)NCc1ccco1", "Potency": "inconclusive: 29.1 µM [inhibitor, single point]"}, {"smiles": "COc1ccc(F)cc1S(=O)(=O)NCC(c1ccco1)S(=O)(=O)c1ccc(F)cc1", "note": "(configuration not stated)", "Potency": "inconclusive: 0.517 µM [inhibitor, full curve, poor fit]"}, {"smiles": "Cc1ccc(-c2cc(C(=O)Nc3nccs3)c3ccccc3n2)o1", "Potency": "inconclusive: 29.1 µM [inhibitor, single point]"}, {"smiles": "O=C(Nc1ccc(CN2CCCCC2)cc1)c1cccc(Br)c1", "Potency": "inconclusive: 20.6 µM [inhibitor, single point]"}, {"smiles": "COc1ccc(CNC(=O)OCc2nccnc2C(=O)Nc2ccc(Br)cn2)cc1", "Potency": "inconclusive: 18.4 µM [inhibitor, single point]"}, {"smiles": "Fc1ccc(C(c2nnnn2Cc2cccs2)N2CCN(C3CCCCC3)CC2)cc1", "note": "(configuration not stated)", "Potency": "inconclusive: 18.4 µM [inhibitor, single point]"}, {"smiles": "N=c1c(C(=O)NCC2CCCO2)cc2c(=O)n3ccccc3nc2n1CCCO", "note": "(configuration not stated)", "Potency": "inconclusive: 7.31 µM [inhibitor, single point]"}, {"smiles": "Clc1ccc(-n2cnnn2)cc1", "Potency": "inactive"}, {"smiles": "CCOCCCNc1nc(-c2ccccc2)nc2ccccc12", "Potency": "inconclusive: 20.6 µM [inhibitor, single point]"}, {"smiles": "NC(=O)N/N=C(/CCCCCC/C(=N\\NC(N)=O)c1ccccc1)c1ccccc1", "Potency": "inconclusive: 20.6 µM [inhibitor, single point]"}, {"smiles": "Cn1cccc1C(=O)N1CCC2(CCN(Cc3ccncc3)CC2)CC1", "Potency": "inactive"}, {"smiles": "COc1ccc(NC(=S)NC(=O)Cc2ccccc2)cc1", "Potency": "inactive"}, {"smiles": "Cc1nn(CCCC(=O)NCCc2ccc(Cl)cc2)c(=O)c2c1sc1ccccc12", "Potency": "inconclusive: 29.1 µM [inhibitor, single point]"}, {"smiles": "CCOc1ccc(N=C(/C(C(=O)C(=O)N2CCOCC2)=C(\\O)c2ccccc2)c2ccccc2)cc1", "Potency": "inactive"}, {"smiles": "O=C(Nc1ccc2ccccc2c1[N+](=O)[O-])c1ccccc1", "Potency": "inconclusive: 16.4 µM [inhibitor, partial curve, poor fit]"}, {"smiles": "Cc1cc(C(F)F)n2nc(C(=O)Nc3cccc(Cl)c3C)nc2n1", "Potency": "inactive"}, {"smiles": "C#Cc1cccc(C(=O)NCc2nc(-c3cccc(NC(=O)c4ccccn4)c3)oc2C)c1", "Potency": "inconclusive: 29.1 µM [inhibitor, single point]"}, {"smiles": "O=C(CN1CCN(c2ccc(F)cc2)CC1)N1CCC(Cc2ccccc2)CC1", "Potency": "inconclusive: 16.4 µM [inhibitor, single point]"}, {"smiles": "CS(=O)(=O)N1CCN(c2ccc(NC(=O)c3ccc(-c4ccc(Cl)cc4)o3)cc2)CC1", "Potency": "inconclusive: 16.4 µM [inhibitor, partial curve]"}, {"smiles": "Cn1c(N)c(C(=O)COC(=O)c2ccc(Cl)c(S(=O)(=O)N3CCCC3)c2)c(=O)n(C)c1=O", "Potency": "inconclusive: 18.4 µM [inhibitor, single point]"}, {"smiles": "COc1cc([N+](=O)[O-])ccc1-c1ccc(/C=C2\\C(=O)ON=C2c2ccccc2)o1", "Potency": "active: 11.6 µM"}, {"smiles": "Cc1ccc(N(C(C)C(=O)Nc2ccc(S(=O)(=O)N3CCOCC3)cc2)S(C)(=O)=O)cc1C", "note": "(configuration not stated)", "Potency": "inconclusive: 29.1 µM [inhibitor, single point]"}, {"smiles": "Cc1c(-c2ccccc2)oc2c(C(=O)OCCN3CCCCC3)cccc2c1=O", "Potency": "inconclusive: 3.21 µM [inhibitor, single point]"}, {"smiles": "O=C(Nc1ccc(-n2nncc2-c2ccccc2)cc1)c1cccc(F)c1", "Potency": "inconclusive: 16.4 µM [inhibitor, single point]"}, {"smiles": "COCCn1c(C)cc(C(=O)CSc2cc(C)c3ccc(OC)cc3n2)c1C", "Potency": "inconclusive: 23.1 µM [inhibitor, single point]"}, {"smiles": "CCC(=O)N1COC[C@@H]1Cc1ccccc1", "Potency": "inactive"}, {"smiles": "COc1ccc(C(=O)N2CCCC(Nc3ccc(C)c(C)c3)C2)c(OC)n1", "note": "(configuration not stated)", "Potency": "inactive"}, {"smiles": "CC(C)OCCOc1ccc2oc(-c3ccco3)cc(=O)c2c1", "Potency": "inactive"}, {"smiles": "O=C(O)CSCC(=O)N1CCN(S(=O)(=O)c2ccccc2)CC1", "Potency": "inactive"}, {"smiles": "Cc1cc(Cl)cc(Cl)c1OCC(=O)NCc1ccco1", "Potency": "inconclusive: 18.4 µM [inhibitor, single point]"}, {"smiles": "Cn1ncc2c(NCc3ccccc3Cl)nc(NCCO)nc21", "Potency": "inconclusive: 13 µM [inhibitor, partial curve, poor fit]"}, {"smiles": "CC(C)(C)c1ccc(S(=O)(=O)NCCOCC(F)(F)C(F)F)cc1", "Potency": "inconclusive: 23.1 µM [inhibitor, single point]"}, {"smiles": "COc1ccc(C(=O)/C=C/c2ccc(O)cc2)c2c1CC(O)C(C)(C)O2", "note": "(configuration not stated)", "Potency": "inconclusive: 18.4 µM [inhibitor, partial curve]"}, {"smiles": "CCCc1[nH][nH]c(=O)c1C(c1cccc(Cl)c1)C(C#N)C#N", "note": "(configuration not stated)", "Potency": "inconclusive: 20.6 µM [inhibitor, single point]"}, {"smiles": "COC(=O)CSc1nnc(-c2sc3cc(OC)ccc3c2Cl)n1C", "Potency": "inactive"}, {"smiles": "CCOc1ccc(CNC(=O)C2CCN(S(=O)(=O)c3cn(C)cn3)CC2)cc1", "Potency": "inactive"}, {"smiles": "CCCCCCCCC1CC(C(=O)Nc2ccccc2)C(=O)O1", "note": "(configuration not stated)", "Potency": "inactive"}, {"smiles": "O=C(CN1CCCN(Cc2ccc(F)cc2Cl)C1=O)NCc1ccccc1", "Potency": "inconclusive: 29.1 µM [inhibitor, single point]"}, {"smiles": "COc1cc(C#Cc2c(-c3cncn3C)n(C)c3ccc(Br)cc23)cc(OC)c1", "Potency": "inconclusive: 25.9 µM [inhibitor, single point]"}, {"smiles": "Cn1nc(C(=O)NCc2cccc(Cl)c2)c2c1-c1ccccc1S(=O)(=O)C2", "Potency": "inconclusive: 23.1 µM [inhibitor, single point] and inconclusive: 20.6 µM [inhibitor, single point]"}, {"smiles": "N#CC1=C(N)N2C(=C(C#N)C13CCCC3)Nc1ccccc12", "Potency": "inactive"}, {"smiles": "Cc1cc(C)cc(NC(=O)Cn2c(=O)n(-c3cc(C)cc(C)c3)c(=O)c3oc4ccccc4c32)c1", "activity change, negative = growth inhibition": "inconclusive: -32.4% [inhibitor]"}, {"smiles": "Cc1nc2ccccc2n2c(-c3ccccc3)c3c(=O)n(C)c(=O)n(C)c3c12", "Potency": "inconclusive: 25.9 µM [inhibitor, single point] and inconclusive: 16.4 µM [inhibitor, single point]"}, {"smiles": "O=C(CN1CCN(c2ccc(Cl)cc2)CC1)Nc1cccc(F)c1", "Potency": "inactive"}, {"smiles": "Cc1c(C(=O)NCc2ccccn2)sc2nc(-c3ccc(F)cc3)cn12", "Potency": "inconclusive: 32.6 µM [inhibitor, single point]"}, {"smiles": "N=C1S/C(=C\\c2cn[nH]c2-c2ccc(F)cc2)C(=O)N1c1ccccc1F", "Potency": "inconclusive: 29.1 µM [inhibitor, single point]"}, {"smiles": "COc1ccc(-n2ccnc2SCC(=O)Nc2nnc(C)s2)cc1", "Potency": "inconclusive: 0.164 µM [inhibitor, full curve, poor fit]"}, {"smiles": "COc1ccc2c(c1OC)C(=O)N1C2SC(C)(C)[C@H]1C(=O)NC1CCCC1", "note": "(some centres not stated)", "Potency": "inactive"}, {"smiles": "CN(C(=O)c1ccc2c(Cl)c3c(nc2c1)CCC3)c1ccccc1", "Potency": "inconclusive: 20.6 µM [inhibitor, single point]"}, {"smiles": "Cc1nc(NC(=O)C2CC2)sc1C(=O)Nc1cccc(Cl)c1", "Potency": "inconclusive: 4.11 µM [inhibitor, single point]"}, {"smiles": "NC(=S)Nc1cc(Cl)cc(Cl)c1", "Potency": "inconclusive: 16.4 µM [inhibitor, partial curve, poor fit]"}, {"smiles": "COc1cccc(C(=O)NC2CCCc3ccccc32)c1", "note": "(configuration not stated)", "Potency": "inactive"}, {"smiles": "NC(=O)C1CCN(c2ncnc3c2c(-c2ccccc2)cn3-c2ccccc2)CC1", "Potency": "inconclusive: 29.1 µM [inhibitor, single point]"}]}]}
